{"source": "PubChem BioAssay AID463173", "about": "(ICCB-Longwood Screening Facility, Harvard Medical School, 2010)", "note": "Out of some 52,000 compounds screened, about 4,300 (8.3%) were called active. No stated cut-off is given here; in the data, active means survival mostly below about 52% (no sharp cut-off); inactive means mostly above about 56%. The list shows a part of the results."}
{"test_system": "DeltatarO mutant", "experiment": "growth inhibition of S. aureus wild type versus tarO mutant, primary screen, teichoic acid synthesis inhibitors, RN4220, OD600 (AID 463173)", "details": "OD600, 18 h, hits give low values, screened at 18.75 µg/mL (by protocol)"}
{"smiles": "CCOc1cccc(CC(=O)N2CCc3c([nH]c4ccccc34)C2c2ccc(C)cc2)c1OCC", "note": "(centres undefined)", "survival": "inactive: 75%"}
{"smiles": "CC(CNC(=O)c1ccc(CSc2nc3ccncc3n2Cc2cccc(F)c2)cc1)c1ccccc1", "note": "(centres undefined)", "survival": "inactive: 85%"}
{"smiles": "COc1ccc(C(=O)Nc2ccc3c(c2)N(C2CCCC2)C(=O)c2ccccc2S3)cc1OC", "survival": "inactive: 76%"}
{"smiles": "O=C(NCCc1ccccc1)C(=O)NCC(c1cccnc1)N1CCN(c2ccccc2)CC1", "note": "(centres undefined)", "survival": "inactive: 51%"}
{"smiles": "O=C(COc1ccc(S(=O)(=O)N2CCCC2)cc1)N1CCCC1", "survival": "inactive: 91%"}
{"smiles": "N#Cc1c(/N=C/c2cccnc2)sc2c1CCC2", "survival": "inactive: 100%"}
{"smiles": "CC1(C)CC(=O)C(C=NC2CC(C)(C)NC(C)(C)C2)=C(O)C1", "survival": "inactive: 92%"}
{"smiles": "CC(=O)c1ccc(N2CCN(S(=O)(=O)c3cc(-c4onc(C)c4C)ccc3C)CC2)cc1", "survival": "inactive: 84%"}
{"smiles": "Cc1cccc2c1-c1sc(C(=O)N3CCN(c4ccc(F)cc4)CC3)cc1CO2", "survival": "inactive: 71%"}
{"smiles": "Cc1ccccc1CNC(=O)CCCn1c(=O)c2cccn2c2ccccc21", "survival": "inactive: 68%"}
{"smiles": "O=C(Cn1cc(S(=O)(=O)N2CCN(c3ccccc3F)CC2)c2ccccc2c1=O)Nc1cccc(C(F)(F)F)c1", "survival": "inactive: 78%"}
{"smiles": "CC12CC(C)(C)C(C#N)(C(N)=C1C#N)C(=C(C#N)C#N)N2", "note": "(centres undefined)", "survival": "inactive: 86%"}
{"smiles": "O=C(COCc1nc2ccccc2c(=O)[nH]1)NCC1CCCCC1", "survival": "inactive: 52%"}
{"smiles": "CC(=O)Nc1ccc(C(=O)N2CCCC2)cc1", "survival": "inactive: 67%"}
{"smiles": "Cc1nc2ccn(Cc3cccnc3)c(=O)c2cc1C(=O)NCc1ccc(Cl)cc1", "survival": "inactive: 69%"}
{"smiles": "COc1ccccc1CNC(=O)CCCn1nc(C)c2c(C)n(-c3ccc(C)cc3)nc2c1=O", "survival": "inactive: 71%"}
{"smiles": "CCOc1ccc(CNC(=O)CCn2c(=O)c3cccn3c3cccnc32)cc1", "survival": "inactive: 85%"}
{"smiles": "Cc1ccc(/C(C#N)=C\\c2cccs2)cc1", "survival": "inactive: 113%"}
{"smiles": "O=C(CSc1nc(=O)n(Cc2ccco2)c2c1CCC2)NCc1ccccc1Cl", "survival": "inactive: 94%"}
{"smiles": "CCOc1ccc(N2CC(NC(=O)c3ccc(S(=O)(=O)N4CCOCC4)cc3)CC2=O)cc1", "note": "(centres undefined)", "survival": "active: 47%"}
{"smiles": "N#Cc1ccc(NC(=O)COCc2cc(-c3ccc4c(c3)OCO4)on2)cc1", "survival": "inactive: 94%"}
{"smiles": "Cc1cc(N2CCN(C)CC2)nc2ccc(NC(=O)Nc3ccc(Cl)cc3)cc12", "survival": "inactive: 72%"}
{"smiles": "COC(=O)c1scc(-c2ccc(C)cc2)c1S(=O)(=O)Nc1ccc(OC(F)(F)F)cc1", "survival": "inactive: 96%"}
{"smiles": "CC(C)N(C(=O)CSc1nnnn1Cc1ccccc1)C(C)C", "survival": "inactive: 88%"}
{"smiles": "COCCNC(=O)CN1C(=O)COc2ccc(S(=O)(=O)N3CCOCC3)cc21", "survival": "inactive: 88%"}
{"smiles": "C=Cc1ccc(CSc2nc(-c3ccccc3C)nc3c2Cc2c(CO)cnc(C)c2O3)cc1", "survival": "inactive: 58%"}
{"smiles": "CCC1CCCCN1S(=O)(=O)c1ccc2c(c1)CCCN2C(C)=O", "note": "(centres undefined)", "survival": "inactive: 70%"}
{"smiles": "CCn1cc(C(=O)OCC(=O)Nc2cccc(Cl)c2C)c(=O)c2ccc(C)nc21", "survival": "inactive: 66%"}
{"smiles": "CCc1ccccc1N(C)C(=O)Nc1cn(CC(C)C)c(=O)c2ccccc12", "survival": "inactive: 113%"}
{"smiles": "COc1ccccc1CNC(=O)C(=O)NCC(c1cccnc1)N1CCN(c2ccccc2)CC1", "note": "(centres undefined)", "survival": "inactive: 57%"}
{"smiles": "Cc1noc(C)c1S(=O)(=O)N(CC(=O)NCc1ccccc1)c1ccc(C(C)C)cc1", "survival": "inactive: 72%"}
{"smiles": "O=C(COCc1cc(-c2ccco2)on1)Nc1cc(Cl)ccc1O", "survival": "active: 0%"}
{"smiles": "COc1ccc(-c2nc(SCC(=O)NC3CCCC3)c(-c3ccc(F)cc3)[nH]2)cc1OC", "survival": "inactive: 60%"}
{"smiles": "CC(Oc1ccccc1)C(=O)NCc1ccccn1", "note": "(centres undefined)", "survival": "inactive: 89%"}
{"smiles": "CCN1C(=O)C2C(c3ccccc3C)NC(Cc3ccc(O)cc3)(C(=O)OC)C2C1=O", "note": "(centres undefined)", "survival": "inactive: 77%"}
{"smiles": "COc1ccc(C)cc1NC(=O)Cn1nc(N2CCN(c3ccccc3OC)CC2)ccc1=O", "survival": "inactive: 62%"}
{"smiles": "COc1ccccc1Cc1nc2ccccc2nc1SCC(=O)NCc1ccc(C)cc1", "survival": "inactive: 80%"}
{"smiles": "CCN(CC)c1nc(Nc2ccc(Cl)cc2)nc(OCC#N)n1", "survival": "inactive: 102%"}
{"smiles": "COc1ccc(C(=O)N2CCN(C(=O)COc3ccccc3)CC2)cc1OC", "survival": "inactive: 66%"}
{"smiles": "O=C(c1ccc2c(c1)N(Cc1ccccc1)C(=O)c1ccccc1S2(=O)=O)N1CCOCC1", "survival": "inactive: 88%"}
{"smiles": "COc1ccc(NC(=O)C(NC(=O)/C=C\\c2ccc3c(c2)OCO3)c2ccc(C)cc2)cc1", "note": "(centres undefined)", "survival": "inactive: 66%"}
{"smiles": "CCc1ccc(-n2c(N3CCN(c4ccc(F)cc4)CC3)nc3ccccc3c2=O)cc1", "survival": "inactive: 83%"}
{"smiles": "CC(C)c1nc2ccccc2c(=O)[nH]1", "survival": "inactive: 91%"}
{"smiles": "O=C(Nc1ccc2oc(-c3cccnc3)nc2c1)c1ccccc1F", "survival": "inactive: 86%"}
{"smiles": "CC(=O)N1CCCc2cc(S(=O)(=O)Nc3ccc(Cl)cc3F)ccc21", "survival": "inactive: 75%"}
{"smiles": "COCCNC(=O)CCn1nc(-c2ccc(Cl)cc2)c2ccccc2c1=O", "survival": "inactive: 77%"}
{"smiles": "COc1ccc(CC(=O)N2CCc3c([nH]c4ccccc34)C2c2ccc(SC)cc2)cc1", "note": "(centres undefined)", "survival": "inactive: 78%"}
{"smiles": "CC1CCN(C(c2ccc(F)cc2)c2sc3nc(-c4ccco4)nn3c2O)CC1", "note": "(centres undefined)", "survival": "inactive: 75%"}
{"smiles": "Cc1cccc(C(=O)N2CCc3cc(CNC(=O)c4ccco4)ccc32)c1", "survival": "inactive: 66%"}
{"smiles": "CCOCCc1nn2c(=O)cc(COC(=O)c3ccc(NC(=O)c4cccs4)cc3)nc2s1", "survival": "inactive: 112%"}
{"smiles": "CCCNC(=O)c1ccc(Cn2c(SCC(=O)NC(C)C)nc3ccccc3c2=O)cc1", "survival": "inactive: 102%"}
{"smiles": "COc1ccccc1CNc1nccn(-c2ccc(F)cc2)c1=O", "survival": "inactive: 87%"}
{"smiles": "CCCn1c2ccccc2c2cnn(CC(=O)NCC3CCN(Cc4ccccc4C)CC3)c(=O)c21", "survival": "inactive: 55%"}
{"smiles": "COc1ccc(C(=O)Nc2nc(-c3ccc(Br)cc3)ns2)cc1", "survival": "active: 58%"}
{"smiles": "Cc1csc2nc(COc3ccc(NC(=O)c4ccccc4F)cc3)cc(=O)n12", "survival": "inactive: 72%"}
{"smiles": "COc1ccc(-c2nc3n(n2)C(c2ccc(O)cc2)C(C(=O)Nc2cccnc2)=C(C)N3)cc1OC", "note": "(centres undefined)", "survival": "inactive: 86%"}
{"smiles": "Cc1ccc2c(c1)c1c3n2CCN=C3CCC1", "survival": "inactive: 106%"}
{"smiles": "CCCCN(C)S(=O)(=O)c1ccc(C(=O)Nc2sc3c(c2C(=O)OCC)CCN(C(C)C)C3)cc1", "survival": "inactive: 73%"}
{"smiles": "CCOC(=O)C1CCN(C(=O)C2CCN(S(=O)(=O)c3c(C)noc3/C=C/c3ccc(C)cc3)CC2)CC1", "survival": "inactive: 124%"}
{"smiles": "COc1cc(OC)cc(C(=O)Nc2ccc3c(c2)CCCN3C(=O)c2cccs2)c1", "survival": "inactive: 112%"}
{"smiles": "CCOC(=O)c1[nH]c(C)c(CCC(=O)N2CCN(c3ccc(OC)cc3)CC2)c1C", "survival": "inactive: 84%"}
{"smiles": "COc1ccc(NC(=O)c2cccc3c(=O)c4c([nH]c23)CCCC4)cc1", "survival": "inactive: 64%"}
{"smiles": "O=C(O)CCC(=O)N1CCc2cc(S(=O)(=O)NCc3ccc(F)cc3)ccc21", "survival": "inactive: 97%"}
{"smiles": "CCCC1=Nc2cc(C(=O)NCc3ccccc3)ccc2Sc2ccccc21", "survival": "inactive: 72%"}
{"smiles": "Cc1ccc(C(C)C)c(OCC(=O)Nc2ccc3c(c2)nc(CCNC(=O)c2ccco2)n3C)c1", "survival": "inactive: 54%"}
{"smiles": "COc1ccc(NC(=O)Cn2c(=O)c3cccn3c3ccccc32)cc1", "survival": "inactive: 49%"}
{"smiles": "Cn1c(=O)c2c(-c3ccccc3)n3c(c2n(C)c1=O)C(c1ccc([N+](=O)[O-])cc1)Nc1ccccc1-3", "note": "(centres undefined)", "survival": "active: 34%"}
{"smiles": "COc1ccc(S(=O)(=O)NCCc2sc(-c3cccnc3)nc2C)cc1", "survival": "inactive: 101%"}
{"smiles": "Cc1ccc(-n2ncc3c(Nc4ccc5c(c4)OCCO5)ncnc32)cc1Cl", "survival": "inactive: 117%"}
{"smiles": "CC(=O)Nc1ccc(OC(=O)N2CCCC2)cc1", "survival": "inactive: 86%"}
{"smiles": "O=c1[nH]c2ccccc2c(O)c1-c1nc2ccccc2c(=O)[nH]1", "survival": "inactive: 100%"}
{"smiles": "Cc1ccc(C(=O)c2oc3ccccc3c2NC(=O)c2cc(-c3ccccc3)on2)cc1", "survival": "inactive: 77%"}
{"smiles": "CCOCCCN1C(=O)CN(C2CCCCCC2)C(=O)C1c1ccc(OCC)c(OC)c1", "note": "(centres undefined)", "survival": "inactive: 122%"}
{"smiles": "CCOC(=O)c1c(NC(=O)c2ccc(S(=O)(=O)N3CCCC(C)C3)cc2)sc2c1CC(C)(C)NC2(C)C", "note": "(centres undefined)", "survival": "inactive: 74%"}
{"smiles": "CC1CC(C)CN(C(=O)c2ccc(Cl)cc2)C1", "note": "(centres undefined)", "survival": "inactive: 96%"}
{"smiles": "COc1ccc(Cl)c2sc(NC(=O)c3ccc(S(=O)(=O)N4CCCC4)cc3)nc12", "survival": "inactive: 98%"}
{"smiles": "COc1ccccc1NC(=O)CSCc1cc(=O)c2cccc(Cl)c2[nH]1", "survival": "inactive: 94%"}
{"smiles": "COc1ccc(OC)c(C2CC(=O)Nc3c2c(=O)n(C)c2ncnn32)c1", "note": "(centres undefined)", "survival": "inactive: 166%"}
{"smiles": "CCOC(=O)c1cc(NC(=O)c2ccccc2)c(=O)n2c1oc1ccc(Cl)cc12", "survival": "inactive: 136%"}
{"smiles": "CCOc1ccccc1CNS(=O)(=O)c1ccc(-c2cnc(C3CC3)o2)cc1", "survival": "inactive: 71%"}
{"smiles": "Cc1ccc(-n2nc(CO)c(C(=O)NCc3cccnc3)n2)cc1C", "survival": "inactive: 110%"}
{"smiles": "CCN(CC)C(NC(=O)c1ccccc1)C(=O)c1ccccc1", "note": "(centres undefined)", "survival": "inactive: 85%"}
{"smiles": "COc1ccc(NC(=O)CSC2=Nc3ccccc3C3=NC(CCC(=O)NC4CCCCC4)C(=O)N23)cc1Cl", "note": "(centres undefined)", "survival": "inactive: 81%"}
{"smiles": "COc1ccc(-c2noc(-c3nnn(-c4ccc(C)cc4C)c3C)n2)cc1", "survival": "inactive: 117%"}
{"smiles": "COc1ccc(S(=O)(=O)c2cn(C)c3cc(N4CCCCCC4)c(F)cc3c2=O)cc1", "survival": "inactive: 86%"}
{"smiles": "O=C(Nc1cc(F)ccc1F)C1CCN(C(=O)c2cnn(-c3ccccc3)c2-n2cccc2)CC1", "survival": "inactive: 69%"}
{"smiles": "Cc1ccc(NC(=O)CSc2nncn2C)c(C)c1", "survival": "inactive: 75%"}
{"smiles": "Cc1ccnc(NC(c2cccc(O)c2)c2ccc3ccc(C)nc3c2O)c1", "note": "(centres undefined)", "survival": "inactive: 68%"}
{"smiles": "Cc1ccc(CNC(=O)c2cc3sc(Cl)cc3n2C)cc1", "survival": "inactive: 80%"}
